# Source: the supplement of paper PMC4166925
# ± gives the standard deviation of the averaged measurements. The full ranking holds about 33,000 sequences; the median of “E-score (dimensionless, -0.5 to 0.5)” is about -0.049, and the highest 2% start at about 0.37. The list shows a part of the results.
# Tested on: T1, PmTbr T-box DNA-binding domain (GST fusion)
# T1 sequence: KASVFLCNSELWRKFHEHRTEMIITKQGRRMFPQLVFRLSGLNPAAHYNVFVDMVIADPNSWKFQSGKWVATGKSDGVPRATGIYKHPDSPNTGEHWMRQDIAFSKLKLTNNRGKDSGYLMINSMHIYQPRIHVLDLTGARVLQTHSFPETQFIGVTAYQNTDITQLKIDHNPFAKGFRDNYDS
# Assay: PBM E-score of 8-mer (E-score (dimensionless, -0.5 to 0.5)); Tbr is Tbrain of the sea star Patiria miniata (Pm) or the sea urchin Strongylocentrotus purpuratus (Sp); higher = stronger binding preference; most listed sequences are background and not binding sites
# Conditions: the construct has about 5 more residues each side
# Method in brief: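 GST-fused Tbr T-box DNA-binding domains (the whole T-box plus about five flanking residues) were expressed in BL21 E. coli at 20 °C and purified by glutathione affinity chromatography. Universal Agilent oligonucleotide arrays were made double-stranded by primer extension, incubated with 200 nM protein in PBS (pH 7.5), then scanned and quantified. Every ungapped 8-mer was scored from probe intensities. The Universal PBM Analysis Suite gave each word an enrichment E-score, averaged over duplicate arrays.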
row,Sequence,PBM E-score of 8-mer
1,AACCTTCT,-0.0898 ± 0.0041
2,ACGTCGCA,0.142 ± 0.067
3,ACTGGGCA,-0.17 ± 0.057
4,GTATGCTA,0.00266 ± 0.025
5,CCGCTAGG,-0.0399 ± 0.016
6,CACCACAA,0.161 ± 0.081
7,AATTTCAA,-0.239 ± 0.02
8,ACAAACCT,-0.1869 ± 0.0004
9,GTAAGAAC,-0.0344 ± 0.05
10,CTCGTAAC,-0.0177 ± 0.081
11,ATATAAGG,-0.0787 ± 0.001
12,TATCACGA,0.104 ± 0.063
13,CCATCAGG,0.0307 ± 0.054
14,CGGACACC,0.296 ± 0.014
15,TAGTCTGA,-0.0796 ± 0.0091
16,AGCGGAGC,-0.183 ± 0.024
17,GTCCGACA,0.104 ± 0.032
18,GGGCGTTA,0.276 ± 0.0092
19,GGCAAATA,-0.0591 ± 0.074
20,CATCGGGA,-0.177 ± 0.044
21,ATGATTTA,-0.0212 ± 0.027
22,ACACCGAC,0.252 ± 0.03
23,GTCCCATA,-0.268 ± 0.029
24,CAGGAGGG,-0.11 ± 0.027
25,CCGCCGCA,-0.139 ± 0.016

row,Sequence,PBM E-score of 8-mer
1,CGTCCACA,0.00836 ± 0.014
2,CTCTCATC,-0.114 ± 0.086
3,CCCGGATA,-0.113 ± 0.049
4,CGGATCAA,0.167 ± 0.029
5,AAGATGTA,-0.167 ± 0.1
6,CATAATTA,-0.341 ± 0.13
7,CTCCGAGC,-0.186 ± 0.0065
8,ACGGGTTC,0.0788 ± 0.024
9,ACCCTAAT,0.0314 ± 0.045
10,GGCTCTAC,0.069 ± 0.037
11,TAAGACAA,-0.0589 ± 0.0022
12,GCAACCAA,-0.217 ± 0.038
13,CTTCCCAC,0.184 ± 0.0075
14,ATCGACGG,-0.00285 ± 0.066
15,GACCCTCC,-0.121 ± 0.03
16,TCAACGCA,0.0714 ± 0.017
17,GGAACACC,0.253 ± 0.049
18,AGAACTAA,-0.178 ± 0.015
19,GACGGTGA,-0.00151 ± 0.0082
20,CCATTCGA,-0.094 ± 0.029
21,CGTAGAGC,-0.3257 ± 0.0021
22,GACGTGGA,-0.183 ± 0.11
23,AAGTAGCC,-0.166 ± 0.04
24,AGAGAGAC,-0.191 ± 0.03
25,GCGAATTA,0.195 ± 0.014

row,Sequence,PBM E-score of 8-mer
1,ACAATTGG,0.144 ± 0.054
2,GAGCTTGC,-0.113 ± 0.019
3,AACATTTC,-0.0908 ± 0.045
4,CCGACTCC,-0.193 ± 0.022
5,GGTAATCA,-0.0165 ± 0.049
6,TAAAAGGA,0.113 ± 0.068
7,CTTGCGTC,0.00404 ± 0.013
8,AGTTTACA,0.14 ± 0.049
9,AAATCCAT,-0.126 ± 0.025
10,AGCTACAG,-0.0735 ± 0.056
11,ATGTGAAT,0.131 ± 0.039
12,CCAAGCGC,0.0354 ± 0.02
13,AAAGAAGC,-0.218 ± 0.034
14,CCTCCTTC,-0.0428 ± 0.04
15,ACAGCGCA,-0.0538 ± 0.03
16,ATCCGGCG,-0.102 ± 0.025
17,ATACGGAT,0.13 ± 0.072
18,GGACTGCC,-0.0971 ± 0.026
19,ATTAGCAC,0.417 ± 0.016
20,CCGACCGA,-0.242 ± 0.017
21,CTACCCCC,-0.368 ± 0.012
22,GAGCCGCA,0.0205 ± 0.0072
23,CGAATTGC,0.145 ± 0.031
24,AGGTACCG,-0.0424 ± 0.0029
25,GGACTATA,-0.046 ± 0.0076

row,Sequence,PBM E-score of 8-mer
1,GAATCTGC,-0.0483 ± 0.062
2,TCGCGGAA,0.129 ± 0.023
3,ACCCCTTC,-0.0359 ± 0.016
4,CATCGCCG,-0.0904 ± 0.042
5,CCACCGGC,-0.0335 ± 0.022
6,GATTTTGC,0.189 ± 0.061
7,GCGACACC,0.462 ± 0.011
8,CGTCTTTA,-0.282 ± 0.011
9,CCCTTGCC,-0.21 ± 0.056
10,ATTCTTAA,-0.159 ± 0.011
11,CCGGGAAC,-0.218 ± 0.045
12,ATCGGGTC,-0.0105 ± 0.12
13,CAGCACTC,-0.0345 ± 0.0064
14,GCGAGAGA,0.232 ± 0.015
15,CGTTAGAG,0.0417 ± 0.059
16,ATGTGGTA,0.0665 ± 0.092
17,GAGGACAC,0.103 ± 0.0019
18,ACCTCCAC,0.173 ± 0.016
19,ACTGATCT,-0.265 ± 0.037
20,GCTATCCA,0.00344 ± 0.057
21,GCGGCAAC,0.159 ± 0.028
22,ACATGCGA,0.138 ± 0.072
23,TCGTCAGA,-0.0513 ± 0.038
24,GGCGAGGA,0.156 ± 0.013
25,AGGATAGG,-0.12 ± 0.019

row,Sequence,PBM E-score of 8-mer
1,GAGTTATA,-0.261 ± 0.0085
2,CCCTTTTA,-0.0988 ± 0.019
3,GCCATACC,-0.262 ± 0.057
4,CGGACTAG,0.102 ± 0.057
5,AGGGGATG,-0.0557 ± 0.055
6,AAGTAGGC,-0.0378 ± 0.082
7,AGATGCCG,-0.306 ± 0.025
8,ACGATGGA,-0.0832 ± 0.044
9,CGGCCCAA,-0.195 ± 0.048
10,CGGAACCA,-0.0801 ± 0.039
11,ATTGATGA,-0.185 ± 0.068
12,ACCGCGAG,0.0859 ± 0.017
13,TTAGTAAA,-0.0101 ± 0.081
14,GACTAGCC,-0.0835 ± 0.014
15,TCTATAAA,-0.131 ± 0.025
16,CCCATGCA,0.19 ± 0.039
17,ACAACTAT,0.16 ± 0.061
18,CATCTTAC,-0.2745 ± 0.0018
19,AGCATAGG,-0.2071 ± 0.00035
20,ACACTAGA,0.245 ± 0.045
21,CGGATATC,-0.155 ± 0.05
22,ATAGTCGA,-0.141 ± 0.059
23,ACCTATCG,0.201 ± 0.0072
24,TTCACGAA,0.169 ± 0.045
25,ATGGCTTA,-0.162 ± 0.044

row,Sequence,PBM E-score of 8-mer
1,TACTTTAA,-0.0228 ± 0.022
2,ACAAGGGG,0.0202 ± 0.12
3,AGGGCTTC,-0.154 ± 0.037
4,ATCAAGAT,-0.105 ± 0.0095
5,GGCCGATA,-0.0723 ± 0.084
6,GCCATTAC,-0.169 ± 0.06
7,CAGGCCCC,-0.291 ± 0.035
8,CCAATATA,-0.0877 ± 0.0097
9,CATTCCGG,-0.145 ± 0.021
10,GCTATAGC,-0.2082 ± 0.00094
11,CCCCAGTC,-0.0749 ± 0.095
12,CAGCAATA,-0.0283 ± 0.018
13,AAGCTAGG,-0.169 ± 0.051
14,GCCCTTTA,-0.3 ± 0.045
15,GCTTGTTA,-0.00297 ± 0.095
16,AATAAGCT,-0.0428 ± 0.0098
17,ACCACCAT,0.1243 ± 0.0012
18,GATTTAAA,-0.0114 ± 0.12
19,CGTCTTGC,-0.0644 ± 0.025
20,AGAATCCG,-0.0956 ± 0.045
21,AATCTTCT,-0.0826 ± 0.034
22,TCGGGAGA,-0.05273 ± 0.00029
23,CGACTAGC,0.211 ± 0.072
24,ATGCCCCA,-0.243 ± 0.014
25,CTGTCTTA,-0.0958 ± 0.0012

row,Sequence,PBM E-score of 8-mer
1,AGACACGG,0.0464 ± 0.014
2,CAAGGAGG,-0.149 ± 0.034
3,AGCCGAGA,-0.051 ± 0.027
4,GGCACCCC,0.244 ± 0.03
5,CTGCGAAG,0.198 ± 0.028
6,AACAGAGC,0.0265 ± 0.018
7,CTGTGACA,0.3356 ± 0.0016
8,ATAGACGC,-0.00834 ± 0.056
9,ATCAGGAA,-0.126 ± 0.038
10,CCGCTGCA,0.00299 ± 0.1
11,AACATCTG,0.0152 ± 0.04
12,CAACAACC,0.00279 ± 0.011
13,CTAAGTTA,-0.0438 ± 0.018
14,AAGATCAT,-0.0474 ± 0.023
15,CCTCTGAC,-0.03519 ± 0.00011
16,CGAGCCAC,0.0291 ± 0.056
17,TCCTCAGA,-0.0553 ± 0.0035
18,CGCGCAAG,0.205 ± 0.013
19,ACATTTTG,0.00324 ± 0.052
20,GTACGCTA,-0.138 ± 0.049
21,ACAGAAGA,-0.242 ± 0.047
22,CCGAATAA,-0.123 ± 0.031
23,CCACAAAG,-0.166 ± 0.0051
24,ACCCACAT,0.203 ± 0.096
25,ACGGTGTG,0.324 ± 0.012

row,Sequence,PBM E-score of 8-mer
1,CGTCTCCC,-0.166 ± 0.0041
2,AACACGCA,0.201 ± 0.028
3,AGTACAAT,-0.026 ± 0.026
4,AGACTTGA,-0.0354 ± 0.064
5,GCATGCGC,-0.108 ± 0.0061
6,TGTTGGAA,0.0995 ± 0.033
7,CATGCCCC,-0.263 ± 0.027
8,GGCTCAAC,-0.303 ± 0.062
9,TGTGCAAA,0.197 ± 0.043
10,CATATCTA,-0.213 ± 0.01
11,CCGAAATC,-0.0059 ± 0.0078
12,CGTCTTAC,-0.208 ± 0.0023
13,CCCTTACG,-0.0493 ± 0.019
14,AGCGGGTA,0.057 ± 0.052
15,AGACGCAA,-0.198 ± 0.011
16,GCAGAGGC,-0.264 ± 0.013
17,AAATAACG,0.197 ± 0.0099
18,ATCGCCTG,0.203 ± 0.019
19,CGGGCGAG,-0.166 ± 0.074
20,GGGCAGAA,0.0722 ± 0.079
21,GGATTCTA,-0.298 ± 0.041
22,CACTTTAG,0.264 ± 0.0037
23,ATTGAGAC,-0.0083 ± 0.048
24,GGATGTAA,-0.229 ± 0.0011
25,CTCGTAGC,-0.041 ± 0.014

row,Sequence,PBM E-score of 8-mer
1,ATCTGTTC,-0.0654 ± 0.027
2,AGCAGATC,-0.0345 ± 0.038
3,ATATTTGC,0.027 ± 0.032
4,ATCGCAGG,0.0806 ± 0.064
5,GAGCGTGC,0.066 ± 0.027
6,GCCAGCAC,0.158 ± 0.09
7,GTTAGGAA,-0.0202 ± 0.0087
8,TCCGGAAA,-0.161 ± 0.0091
9,CGCACCCG,0.324 ± 0.0037
10,TCGACGAA,0.037 ± 0.0028
11,ATGCCCGC,-0.0794 ± 0.062
12,CACATGAG,0.166 ± 0.027
13,TAGACGCA,-0.179 ± 0.0073
14,ACTTAAAC,-0.0238 ± 0.043
15,CAACTACC,0.0301 ± 0.007
16,CGAGCGCA,-0.0373 ± 0.017
17,AGCGAGGA,0.0341 ± 0.031
18,CCGGGCGC,0.0792 ± 0.059
19,CATGAAAG,0.0539 ± 0.074
